About 1,900 (2.5%) of roughly 76,000 compounds were called active. Inconclusive means that the source gave no clear call. Such entries were picked first, then a sample of the others. The call rests on the fitted dose curve; in most records, active means well fitted inhibition curve with a large enough effect; inconclusive means small, poorly fitted or top-dose-only effect; inactive means flat fitted curve, though single readings scatter. Potencies of inconclusive entries are doubtful fits and often do not repeat.
molecular target: Luciferin 4-monooxygenase (Photinus pyralis) (UniProt P08659); assay: Firefly luciferase inhibition profiling of diverse chemical library using quantitative high-throughput screening; further: nearly all actives have a fitted effect of over 65% in size; settings: purified P. pyralis luciferase, luminescence, biochemical; series mostly up to 115 µM
How it was run: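 Purified P. pyralis luciferase (10nM final) in 50mM Tris acetate pH 7.5, 10mM Mg acetate, 0.01% Tween-20, 0.05% BSA with 10uM D-luciferin and 10uM ATP. Compounds titrated qHTS. Luminescence imaged on CCD.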
Potency means the concentration at half of the fitted maximal effect; tags describe the fitted curve by direction and shape.

Sequence of UniProt P08659 (P08659 whole entry, looked up): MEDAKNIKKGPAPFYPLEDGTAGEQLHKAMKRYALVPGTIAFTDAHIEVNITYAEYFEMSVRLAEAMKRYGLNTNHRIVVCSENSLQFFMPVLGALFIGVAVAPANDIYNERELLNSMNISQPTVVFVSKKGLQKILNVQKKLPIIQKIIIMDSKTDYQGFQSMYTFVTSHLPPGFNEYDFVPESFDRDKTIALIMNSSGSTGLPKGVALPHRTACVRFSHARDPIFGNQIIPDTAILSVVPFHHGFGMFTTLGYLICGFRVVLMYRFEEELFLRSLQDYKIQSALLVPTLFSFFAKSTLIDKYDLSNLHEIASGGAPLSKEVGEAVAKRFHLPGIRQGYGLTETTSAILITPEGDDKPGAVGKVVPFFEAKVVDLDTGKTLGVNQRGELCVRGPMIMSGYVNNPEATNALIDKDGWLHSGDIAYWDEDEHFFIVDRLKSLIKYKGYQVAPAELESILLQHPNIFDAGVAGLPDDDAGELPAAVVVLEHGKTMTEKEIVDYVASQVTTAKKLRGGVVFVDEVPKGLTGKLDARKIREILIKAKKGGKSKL

| Compound | Potency |
| --- | --- |
| COc1ccc(-c2cc3nc4c(c(=O)n3[nH]2)CN(C(=O)Cc2ccc(NC(C)=O)cc2)CC4)cc1 | inconclusive: 35.5 µM [inhibitor, partial curve] |
| Cc1cccc(OCC(=O)N2CCCC(c3noc(COc4ccccc4F)n3)C2)c1 (centres undefined) | inconclusive: 44.7 µM [inhibitor, partial curve] |
| c1csc(-c2nc3ccncc3[nH]2)c1 | inconclusive: 100 µM [inhibitor, partial curve] |
| O=C(c1cccc2[nH]ccc12)N1C[C@@H](CO)[C@H](c2ccccn2)C1 | inconclusive: 39.8 µM [inhibitor, partial curve] |
| Cc1ccc(NC(=O)c2cc3n(n2)CC(c2ccc4c(c2)OCO4)OC3)cc1 (centres undefined) | inconclusive: 25.1 µM [inhibitor, full curve] |
| CCNC(=O)Nc1ccc(OCC(=O)NCc2ccc(C)cc2)nc1 | inconclusive: 50.1 µM [inhibitor, partial curve] |
| O=C(NCCc1cccnc1)c1cccc2c1CCN2C(=O)Nc1ccc(F)cc1 | active: 0.398 µM |
| CS(=O)(=O)N(Cc1cccnc1)C1CN(C(=O)Nc2ccc3c(c2)OCCO3)C1 | active: 35.5 µM |
| Cc1ccc(-n2nc(C)c([C@@H]3C=C[C@@H](NCc4ccc(N(C)C)cc4)C3)c2C)cc1Cl | active: 25.1 µM |
| N#Cc1cccc(CN2C[C@H](O)C[C@H]2c2nc(-c3ccc(F)cc3)no2)c1 | inconclusive: 70.8 µM [inhibitor, partial curve] |
| CC(=O)Nc1cccc(C(=O)N2CCC3(CC2)N=C(c2ccc(C)cc2)NO3)c1 | inconclusive: 44.7 µM [inhibitor, partial curve, poor fit] |
| COCCOCC(=O)N1CCC2(CC1)C(OC)CN2c1cccc(F)c1 (centres undefined) | inactive |
| CN(C)c1cccc(C(=O)NCC2CCN(c3cc(-c4ccc(F)cc4)[nH]n3)CC2)c1 | inconclusive: 39.8 µM [inhibitor, partial curve] |
| Cc1cc(NC(=O)c2ccc3c(c2)OCCN(C2CCC2)C3)ccc1F | active: 22.4 µM |
| COCCNC(=O)C1CCN(C(=O)c2ncn3c2COC(c2ccc(F)cc2)C3)CC1 (centres undefined) | inconclusive: 44.7 µM [inhibitor, partial curve] |
| Cc1ccc(NC(=O)Nc2cccc(-c3ccc(N4CCOCC4)nn3)c2)cc1 | active: 0.631 µM |
| CC(C)n1cc2cc(C(=O)NCCc3cccs3)sc2c1 | inconclusive: 56.2 µM [inhibitor, partial curve] |
| Cc1noc(C)c1CCC(=O)NCc1cccnc1N1CCOCC1 | inconclusive: 50.1 µM [inhibitor, partial curve] |
| O=C(Cc1cccc(Cl)c1)NCc1ccnc2[nH]ccc12 | inconclusive: 44.7 µM [inhibitor, partial curve] |
| COc1ccc(NC(=O)N2CCCC(Cn3cnc4cccnc43)C2)cc1Cl (centres undefined) | inactive |
| O=C1N(Cc2cccc(F)c2F)CCCC12CCN(c1nc3ccccc3o1)C2 (centres undefined) | inconclusive: 50.1 µM [inhibitor, partial curve] |
| c1ccc(Nc2cc3c(cn2)CN(Cc2c[nH]c4ccccc24)CCN3)cc1 | inactive |
| O=C(c1ccc(F)c(F)c1)N1CCC(n2cc(-c3nc(-c4ccccc4)no3)nn2)C1 (centres undefined) | inconclusive: 39.8 µM [inhibitor, partial curve] |

| Compound | Potency |
| --- | --- |
| COc1ccc(NC(=O)c2ccc3c(c2)N(C)C2CCCCCN2C3=O)cc1 (centres undefined) | inconclusive: 35.5 µM [inhibitor, partial curve] |
| Fc1ccc(C2Cn3nnc(-c4nc(-c5ccccc5Br)no4)c3CO2)cc1 (centres undefined) | inconclusive: 50.1 µM [inhibitor, partial curve] |
| CCn1ncc(N2CCCC(CC(=O)Nc3ccc(C)cc3C)C2)cc1=O (centres undefined) | inactive |
| CCOc1ccc2c(n1)CCN(C(=O)Nc1ccc(CC)cc1)C2 | inconclusive: 39.8 µM [inhibitor, partial curve] |
| Cn1cccc1CN1CCC2(CC1)CC(=O)c1ccc(Cl)cc1O2 | inconclusive: 50.1 µM [inhibitor, partial curve] |
| O=C(NC1CCN(c2cc(-c3ccccc3)[nH]n2)CC1)c1cccs1 | inconclusive: 50.1 µM [inhibitor, partial curve] |
| CC(C)c1noc(-c2nc(-c3ccc4c(c3)OCO4)no2)n1 | active: 3.55 µM |
| c1cn(CCc2noc(C3CCCO3)n2)c(-c2nc3c(s2)CCCC3)n1 (centres undefined) | inconclusive: 50.1 µM [inhibitor, partial curve] |
| CCN1CCN(C(=O)C23CCCC=C2N(C2CCCC2)C(=O)CC3)CC1 (centres undefined) | active: 39.8 µM |
| COc1ccc(C(=O)N2C[C@@H]3C[C@H](C2)c2ccc(NC(=O)Nc4cccc(C#N)c4)c(=O)n2C3)cc1 | active: 25.1 µM |
| Cc1noc(C)c1Cc1ccc(C(=O)N2CCCCCCNC(=O)CC2)o1 | inactive |
| CC1=C[C@@H](CNC(=O)Nc2ccccc2)[C@H](C(C)C)C[C@H]1Cc1nnc(-c2ccncc2)o1 | inactive |
| O=C(Nc1ccc2c(N3CCCC3)ncnc2c1)C1CCCO1 (centres undefined) | inactive |
| CCc1cccc2c(C(CC(=O)NCc3ccc4c(c3)OCO4)c3ccc(OC)c(OC)c3)c[nH]c12 (centres undefined) | inactive |
| O=c1[nH]c(N2CCOCC2)nc2c1CCN(Cc1cc(F)ccc1F)CC2 | inactive |
| C[C@@H]1C(=O)O[C@H]2[C@H]1CC[C@@]1(C)Cc3sc(NC(=O)CC(C)(C)C)nc3[C@@H](C)[C@H]21 | active: 20 µM |
| COc1ccc(-c2ccc3c(c2)C(=O)N2CC[C@H](NC(=O)CSC)[C@H]2C(=O)N3)c(OC)c1 | inconclusive: 89.1 µM [inhibitor, single point] |
| OCCc1ccc(Nc2cnc3ccc(-c4cccc(CO)c4)nn23)cc1 | inconclusive: 89.1 µM [inhibitor, partial curve] |
| Cc1cc(Cl)c2oc(C(=O)N(Cc3c(C)nn(C)c3C)C3CC3)c(C)c2c1 | active: 28.2 µM |
| CO[C@H]1C(=O)N(C2CCN(C(=O)Cn3ccc(C)n3)CC2)[C@H]1c1ccncc1 | inactive |
| O=C(c1cccs1)N1CCCn2cc(-c3ccccc3F)nc21 | active: 22.4 µM |
| Cc1noc(C)c1S(=O)(=O)N1CCc2nc3cc(-c4ccccc4)[nH]n3c(=O)c2C1 | inconclusive: 39.8 µM [inhibitor, partial curve] |
| COc1ccc(-c2ccc3ncc(Nc4cccc(F)c4)n3n2)cn1 | inconclusive: 70.8 µM [inhibitor, partial curve] |

| Compound | Potency |
| --- | --- |
| Clc1ccc(C2Cn3nnc(-c4nc(-c5ccc6c(c5)OCO6)no4)c3CO2)cc1 (centres undefined) | inactive |
| CN(C(=O)c1ccc(C(F)(F)F)cc1)C1CCCc2ccccc21 (centres undefined) | inconclusive: 44.7 µM [inhibitor, partial curve] |
| O=C(Nc1ccc2c(c1)OCCO2)N1CCC(c2nc(C3CCOCC3)no2)CC1 | active: 10 µM |
| CN1c2cc(C(=O)Nc3cccc(C#N)c3)ccc2C(=O)N2CCCCC21 (centres undefined) | inconclusive: 20 µM [inhibitor, full curve] |
| O=C(C1CCC1)N1c2ccccc2CC1c1noc(C2CCOCC2)n1 (centres undefined) | active: 1.78 µM |
| C=CCNC(=O)c1cnn2cc(C)ccc12 | inconclusive: 112 µM [inhibitor, partial curve] |
| COc1cccc(Nc2cn(C)c(=O)n3cc(COc4ccccc4)nc23)c1 | inconclusive: 35.5 µM [inhibitor, partial curve] |
| FC(F)(F)Oc1cccc(CN2CCNc3cc(Nc4cccnc4)ncc3C2)c1 | inconclusive: 89.1 µM [inhibitor, partial curve] |
| COc1ccc(NC(=O)CN2C(=O)NC(c3ccc(Cl)cc3)C3=C2COC3=O)cc1Cl (centres undefined) | inconclusive: 10 µM [inhibitor, full curve] |
| Cc1c(CNC(=O)c2ccc(C3CCNC3)cc2)oc2ccccc12 (centres undefined) | inactive |
| O=C(c1cc(-c2ccc(F)cc2)nc2ccccc12)N1CCC(Cc2nncn2CC2CC2)CC1 | active: 12.6 µM |
| Cn1c(CNC(=O)c2cccc(C3CCNC3)c2)nc2ccccc21 (centres undefined) | inactive |
| CC1=C[C@@H](CNC(=O)Nc2ccc(F)cc2)[C@H](C(C)C)C[C@H]1Cc1nc2c(C)cccc2[nH]1 | inconclusive: 39.8 µM [inhibitor, partial curve, poor fit] |
| O=C(NC1CCCN(c2cc(-c3ccc(F)cc3)[nH]n2)C1)c1c[nH]c2ccccc12 (centres undefined) | active: 22.4 µM |
| CNC(=O)CCn1ncc2cc(OC3CCc4cccc(-c5ccncc5)c43)ccc21 (centres undefined) | inactive |
| CCNC(=O)N1Cc2[nH]cnc2C[C@H]1c1nc(-c2ccc(OC(F)(F)F)cc2)no1 | inconclusive: 100 µM [inhibitor, partial curve, poor fit] |
| Cc1ccc(C(=O)N2CCCN(Cc3ccncc3)C(c3ccccc3)CC(=O)NCC2)s1 (centres undefined) | inconclusive: 50.1 µM [inhibitor, partial curve] |
| CN1C(=O)CCc2cc(NC(=O)Cc3ccccc3Cl)ccc21 | inconclusive: 44.7 µM [inhibitor, partial curve] |
| O=C(CN1C(=O)NC2(CCOCC2)C1=O)Nc1ccc(F)cc1 | inactive |
| COc1cccc(-n2cc(CN(C)c3nccc(-c4cccnc4)n3)cn2)c1 | inconclusive: 50.1 µM [inhibitor, partial curve] |
| COc1cccc(C(=O)N2CCC(N(Cc3ccccc3)C3CCOCC3)CC2)c1 | inconclusive: 50.1 µM [inhibitor, partial curve, poor fit] |
| COCCN1CCOc2nc(-c3cccc(OC(F)(F)F)c3)ncc2C1=O | active: 15.8 µM |
| CC(C)C(NC(=O)c1cn(C2CCC(N)CC2)nn1)c1nc(C2CC2)no1 (centres undefined) | inactive |
